Data reported in publication PMC9911399, “Two distinct binding modes provide the RNA-binding protein RbFox with extraordinary sequence specificity”.
Residue numbers refer to the chain shown, from its start. The list shows a part of the results.

B1: CUGAGAG (DNA:RNA)
RNA: GGGAGACCGGAAUUCAGAUUGUCCCUGAGAGUUAAAUCCCGUCGUAGCCACCA
DNA 1: CAATCTGAATTCCGGTCTCCC
DNA 2: TGGTGGCTACGACGGGATT
B2: UUUCCUU (DNA:RNA)
RNA: B1 RNA with C25U, G27U, A28C, G29C, A30U, G31U
DNA 1: CAATCTGAATTCCGGTCTCCC
DNA 2: TGGTGGCTACGACGGGATT
B3: GCCCAUG (DNA:RNA)
RNA: B1 RNA with C25G, U26C, G27C, A28C, G29A, A30U
DNA 1: CAATCTGAATTCCGGTCTCCC
DNA 2: TGGTGGCTACGACGGGATT
B4: CUCUGCC (DNA:RNA)
RNA: B1 RNA with G27C, A28U, A30C, G31C
DNA 1: CAATCTGAATTCCGGTCTCCC
DNA 2: TGGTGGCTACGACGGGATT
B5: CCCUGUG (DNA:RNA)
RNA: B1 RNA with U26C, G27C, A28U, A30U
DNA 1: CAATCTGAATTCCGGTCTCCC
DNA 2: TGGTGGCTACGACGGGATT
B6: GCGUAGG (DNA:RNA)
RNA: B1 RNA with C25G, U26C, A28U, G29A, A30G
DNA 1: CAATCTGAATTCCGGTCTCCC
DNA 2: TGGTGGCTACGACGGGATT
B7: AUCAGGA (DNA:RNA)
RNA: B1 RNA with C25A, G27C, A30G, G31A
DNA 1: CAATCTGAATTCCGGTCTCCC
DNA 2: TGGTGGCTACGACGGGATT
B8: GUGUCGA (DNA:RNA)
RNA: B1 RNA with C25G, A28U, G29C, A30G, G31A
DNA 1: CAATCTGAATTCCGGTCTCCC
DNA 2: TGGTGGCTACGACGGGATT
B9: UAGGAAC (DNA:RNA)
RNA: B1 RNA with C25U, U26A, A28G, G29A, G31C
DNA 1: CAATCTGAATTCCGGTCTCCC
DNA 2: TGGTGGCTACGACGGGATT

What follows are binders tested against T1, RBFOX1 RRM RbFoxmut (Fox-RRM*) (Homo sapiens, UniProt Q9NWB1 109-208, R118D;E147R;N151S;E152T) (assay: EMSA; HiTS-Eq, 1 nM pool, 10 min; buffer printed only for the single-RNA assays: 10 mM Tris pH 7.5, 150 mM NaCl, 3.4 mM EDTA, 0.001% NP-40, 30 C). Settings: tags: His6 N-terminal (pET28a); label: 5' 32P.
T1 sequence: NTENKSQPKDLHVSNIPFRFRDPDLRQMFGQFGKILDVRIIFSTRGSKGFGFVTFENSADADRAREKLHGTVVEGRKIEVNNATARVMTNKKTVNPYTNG
Summary of the method: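 A pool of RNA with 7 randomized nucleotides, 5′-radiolabelled and with DNA-annealed flanks, was equilibrated at 1 nM for 10 min in 50 µL with purified RbFox RRM, wild type or mutant, across increasing protein concentrations. Free RNA was separated by 8% native PAGE, excised, reverse-transcribed, barcoded by PCR and sequenced. Relative association constants were obtained from read-count changes of each RNA species versus the control reaction and normalised to the cognate motif.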

First: B1
Second: B2
The binding signal of the first is higher: 0.0844 KA relative to UGCAUGU for the first, 0.0655 KA relative to UGCAUGU for the second.

Compared with B3, B4 is higher in binding signal: 0.107 KA relative to UGCAUGU for the first, 0.348 KA relative to UGCAUGU for the second.

Compared with B5, B6 is lower in binding signal: 0.138 KA relative to UGCAUGU for the first, 0.102 KA relative to UGCAUGU for the second.

Compared with B7, B8 is higher in binding signal: 0.0805 KA relative to UGCAUGU for the first, 0.101 KA relative to UGCAUGU for the second.

With B9 the binding signal was 0.0532 KA relative to UGCAUGU.
